{"source": "paper PMC4336329", "about": "(PLoS ONE, 2015)", "note": "The whole screen tested about 310,000 compounds, of which about 2,200 (0.71%) showed an effect of 50% or more. The effect is printed as a negative number. The list shows a part of the results.", "data": [{"target": "human ether-à-go-go-related gene (hERG) potassium channel (human, UniProt Q12809)", "sequence (Q12809 whole entry, looked up)": "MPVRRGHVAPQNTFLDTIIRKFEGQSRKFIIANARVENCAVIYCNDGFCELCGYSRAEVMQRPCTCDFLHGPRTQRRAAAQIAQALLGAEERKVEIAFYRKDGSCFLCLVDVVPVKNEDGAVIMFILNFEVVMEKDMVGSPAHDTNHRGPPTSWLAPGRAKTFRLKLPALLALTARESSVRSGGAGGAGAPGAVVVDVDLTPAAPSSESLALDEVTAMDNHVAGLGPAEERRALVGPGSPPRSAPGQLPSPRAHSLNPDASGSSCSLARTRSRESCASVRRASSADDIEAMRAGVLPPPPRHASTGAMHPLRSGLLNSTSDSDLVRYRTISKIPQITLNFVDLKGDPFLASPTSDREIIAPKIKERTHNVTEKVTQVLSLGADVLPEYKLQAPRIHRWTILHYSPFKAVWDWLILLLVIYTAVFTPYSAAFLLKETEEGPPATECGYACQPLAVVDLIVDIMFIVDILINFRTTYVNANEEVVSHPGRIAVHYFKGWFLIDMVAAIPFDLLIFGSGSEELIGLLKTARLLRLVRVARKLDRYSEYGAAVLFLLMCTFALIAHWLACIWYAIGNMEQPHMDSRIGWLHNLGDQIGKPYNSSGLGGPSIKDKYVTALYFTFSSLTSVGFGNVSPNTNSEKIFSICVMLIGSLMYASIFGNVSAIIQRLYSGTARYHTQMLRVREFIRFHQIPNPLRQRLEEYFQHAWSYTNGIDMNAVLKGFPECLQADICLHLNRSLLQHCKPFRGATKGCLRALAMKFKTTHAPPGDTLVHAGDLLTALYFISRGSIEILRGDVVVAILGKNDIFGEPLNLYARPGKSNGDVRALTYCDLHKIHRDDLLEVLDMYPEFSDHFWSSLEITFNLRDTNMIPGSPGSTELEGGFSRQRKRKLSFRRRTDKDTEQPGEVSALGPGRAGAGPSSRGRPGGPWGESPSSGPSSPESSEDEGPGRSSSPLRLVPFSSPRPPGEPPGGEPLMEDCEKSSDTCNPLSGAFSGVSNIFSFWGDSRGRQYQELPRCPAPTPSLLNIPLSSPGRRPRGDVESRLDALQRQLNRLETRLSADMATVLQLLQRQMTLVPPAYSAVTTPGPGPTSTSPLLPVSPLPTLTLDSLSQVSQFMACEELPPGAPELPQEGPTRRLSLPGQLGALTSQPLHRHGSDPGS", "test": "primary screen, population patch clamp on CHO cells stably expressing hERG", "units": {"hERG current change (%, negative = inhibition) at 1uM": "%"}, "values": [{"smiles": "CC(C)[C@@H](C(=O)N1CCN(Cc2ccc3c(c2)OCO3)CC1)n1nnc2ccccc2c1=O", "hERG current change (%, negative = inhibition) at 1uM": 6.79}, {"smiles": "CC(=O)c1cccc(OCCCOc2cccc3cccnc23)c1", "hERG current change (%, negative = inhibition) at 1uM": 10.6}, {"smiles": "COc1cc(OC)cc(C(=O)N2CCN(S(=O)(=O)c3ccc(Cl)s3)CC2)c1", "hERG current change (%, negative = inhibition) at 1uM": -1.92}, {"smiles": "COc1cc(OC)cc(-n2c3nc4ccccc4nc3c3c(=O)n(CC4CCCO4)cnc32)c1", "note": "(stereo not shown)", "hERG current change (%, negative = inhibition) at 1uM": 6.72}, {"smiles": "O=C(Nc1ccc2c(c1)OCCO2)c1ccc(Br)s1", "hERG current change (%, negative = inhibition) at 1uM": 12.5}, {"smiles": "COc1ccc(CCN(C)C2CCCN(S(=O)(=O)C(C)C)C2)cc1OC", "note": "(stereo not shown)", "hERG current change (%, negative = inhibition) at 1uM": 10.6}, {"smiles": "O=C(Cc1ccccc1)NCC(=O)N/N=C/c1cccnc1", "hERG current change (%, negative = inhibition) at 1uM": 15.4}, {"smiles": "Cc1[nH][nH]c(=O)c1C(c1c(C)[nH][nH]c1=O)c1cn(Cc2cccc3ccccc23)c2ccccc12", "hERG current change (%, negative = inhibition) at 1uM": 13.9}, {"smiles": "Cc1[nH]n(C(C)(C)C)c(=O)c1Sc1ccccc1", "hERG current change (%, negative = inhibition) at 1uM": 5.51}, {"smiles": "Cc1cc(C(=O)NC2CCCc3ccccc32)no1", "note": "(stereo not shown)", "hERG current change (%, negative = inhibition) at 1uM": 6.77}, {"smiles": "COc1cc(/C=N/n2cnnc2)ccc1Oc1nc(Cl)ncc1F", "hERG current change (%, negative = inhibition) at 1uM": 1.59}, {"smiles": "Oc1ccc(Br)cc1-c1nc2cnccn2c1NC1CCCC1", "hERG current change (%, negative = inhibition) at 1uM": 7.47}, {"smiles": "CC(=O)N1CCN(S(=O)(=O)c2cccc(C(=O)Nc3ccc(C)cn3)c2)CC1", "hERG current change (%, negative = inhibition) at 1uM": 0.445}, {"smiles": "CN(CCO)S(=O)(=O)c1ccc2c(c1)C(=O)c1cc(S(=O)(=O)N(C)CCO)ccc1-2", "hERG current change (%, negative = inhibition) at 1uM": 11.3}, {"smiles": "CCOC(=O)c1cc2c(nc1C)-c1cc(Cl)cc(Cl)c1OC2O", "note": "(stereo not shown)", "hERG current change (%, negative = inhibition) at 1uM": 6.68}, {"smiles": "CC(=O)c1ccc(N2CCN(C(=O)/C=C/c3cccs3)CC2)cc1", "hERG current change (%, negative = inhibition) at 1uM": -15.8}, {"smiles": "NC(CCCCCP(=O)(c1ccccc1)c1ccccc1)C(=O)O", "note": "(stereo not shown)", "hERG current change (%, negative = inhibition) at 1uM": 7.93}, {"smiles": "CN(C)c1oc(-c2ccccc2Cl)nc1P(=O)(c1ccccc1)c1ccccc1", "hERG current change (%, negative = inhibition) at 1uM": 11.1}, {"smiles": "N#C/C(=C\\c1ccco1)C(=O)Nn1cnnc1", "hERG current change (%, negative = inhibition) at 1uM": 13.7}, {"smiles": "CC1CCC(C(=O)NC(C(=O)NCCCN2CCOCC2)C(C)C)CC1", "note": "(stereo not shown)", "hERG current change (%, negative = inhibition) at 1uM": -5.74}, {"smiles": "CN(c1ccc(C(=O)NCCSCc2ccc(Cl)cc2)cc1)S(=O)(=O)c1ccccc1", "hERG current change (%, negative = inhibition) at 1uM": 14.1}, {"smiles": "Cc1ccc(C(=O)CSc2nnc(-c3ccccc3N)n2C)cc1", "hERG current change (%, negative = inhibition) at 1uM": 4.54}, {"smiles": "Nc1nccnc1C(=O)OCC(=O)NNC(=O)c1ccccc1", "hERG current change (%, negative = inhibition) at 1uM": 4.97}, {"smiles": "COc1cccc(CNC(=O)CCC2CCCN(C(=O)c3cc4ccccc4o3)C2)c1", "note": "(stereo not shown)", "hERG current change (%, negative = inhibition) at 1uM": -3.08}, {"smiles": "CSc1nc(NCCCN(C)C)c2c3c(sc2n1)CN(C)CC3", "hERG current change (%, negative = inhibition) at 1uM": 4.72}, {"smiles": "Cc1ccc(S(=O)(=O)C(C#N)c2nc3ccccc3nc2N2CC(C)OC(C)C2)cc1C", "note": "(stereo not shown)", "hERG current change (%, negative = inhibition) at 1uM": 11.7}, {"smiles": "Cc1cccc(N2CCN(S(=O)(=O)c3ccc4c(c3)CCC(=O)N4)CC2C)c1", "note": "(stereo not shown)", "hERG current change (%, negative = inhibition) at 1uM": -13.4}, {"smiles": "N#Cc1cccc(S(=O)(=O)N2CCN(c3ccnc4cc(Cl)ccc34)CC2)c1", "hERG current change (%, negative = inhibition) at 1uM": -57.2}, {"smiles": "CC1=C(C(=O)OC(C)C)C(c2ccc3c(c2)OCO3)NC(=O)N1", "note": "(stereo not shown)", "hERG current change (%, negative = inhibition) at 1uM": 12.5}, {"smiles": "COc1ccc(C(=O)NCc2nnc(SCC(=O)NCCc3ccccc3)o2)cc1", "hERG current change (%, negative = inhibition) at 1uM": 5.65}, {"smiles": "CC(=O)Nc1ccc(NC(=O)C2CCCN2S(=O)(=O)c2cccc(C(F)(F)F)c2)cc1", "note": "(stereo not shown)", "hERG current change (%, negative = inhibition) at 1uM": -6.71}, {"smiles": "CCCCC(=O)NC(c1ccc(Cl)cc1Cl)c1ccc2cccnc2c1O", "note": "(stereo not shown)", "hERG current change (%, negative = inhibition) at 1uM": 11.3}, {"smiles": "CCOC(=O)Cc1csc(Nc2c(C)n(C)n(-c3ccccc3)c2=O)n1", "hERG current change (%, negative = inhibition) at 1uM": 3.31}, {"smiles": "CC1=CC(=O)C(C(C)C)=CC1=NC(=O)c1ccc(C)cc1", "hERG current change (%, negative = inhibition) at 1uM": 15.1}, {"smiles": "CN(CCC#N)C(=O)COC(=O)c1ccccc1OCc1ccccc1Cl", "hERG current change (%, negative = inhibition) at 1uM": 6.79}, {"smiles": "COC(=O)C(Cc1c[nH]c2ccccc12)NC(=O)C(C)C", "note": "(stereo not shown)", "hERG current change (%, negative = inhibition) at 1uM": 11.4}, {"smiles": "O=C(Nc1cccc(-c2nc3ccccc3[nH]2)c1)c1cccc(NC(=O)c2ccco2)c1", "hERG current change (%, negative = inhibition) at 1uM": 12.3}, {"smiles": "Cc1ccccc1OCC(=O)Nc1ccccc1N1CCOCC1", "hERG current change (%, negative = inhibition) at 1uM": 4.24}, {"smiles": "Cc1cc(C)cc(OCC(=O)Nc2cccc(-c3nc4ncccc4o3)c2)c1", "hERG current change (%, negative = inhibition) at 1uM": 11.9}, {"smiles": "COc1ccc(C(=O)NN/C(C)=C/C(=O)C(F)(F)C(F)(F)C(F)(F)F)cc1", "hERG current change (%, negative = inhibition) at 1uM": 5.91}, {"smiles": "CC(C)(C)c1ccc(C(=O)c2c[nH]c(C(=O)NCCCn3ccnc3)c2)cc1", "hERG current change (%, negative = inhibition) at 1uM": 6.02}, {"smiles": "N=c1c(C(=O)NCc2ccc(F)cc2)cc2c(=O)n3ccccc3nc2n1CCCN1CCOCC1", "hERG current change (%, negative = inhibition) at 1uM": -91.8}, {"smiles": "O=C(COc1cccc2ccccc12)Nc1cc(S(=O)(=O)N2CCOCC2)ccc1N1CCOCC1", "hERG current change (%, negative = inhibition) at 1uM": -2.09}, {"smiles": "Cc1cc(Br)ccc1SCC(=O)OCC(=O)NCc1ccco1", "hERG current change (%, negative = inhibition) at 1uM": 3.07}, {"smiles": "Cc1ccc(-n2ncc(C(=O)O)c2C2CCN(C(=O)OC(C)(C)C)CC2)cc1", "hERG current change (%, negative = inhibition) at 1uM": 1.61}, {"smiles": "COCC(=O)Nc1nnc(C2CCCCC2)s1", "hERG current change (%, negative = inhibition) at 1uM": -2.67}, {"smiles": "O=C(CSc1nc2ccccc2c(=O)n1CC1CCCO1)NCCc1ccccc1", "note": "(stereo not shown)", "hERG current change (%, negative = inhibition) at 1uM": 19.6}, {"smiles": "O=C(NC1CC1)c1ccc2c(c1)C1C3CCC(C3)C1C(c1ccccc1)N2", "note": "(stereo not shown)", "hERG current change (%, negative = inhibition) at 1uM": 10.2}, {"smiles": "CCC(CC)C(=O)Nc1nnc(S(=O)(=O)Nc2ccccc2C)s1", "hERG current change (%, negative = inhibition) at 1uM": 14.1}, {"smiles": "COCC(C)N1CCC(Oc2ccc(C(=O)N3CCCC3)cc2)CC1", "note": "(stereo not shown)", "hERG current change (%, negative = inhibition) at 1uM": 10.5}, {"smiles": "O=C(Cn1c(=O)n(CC(=O)N2CCCCC2)c(=O)c2sccc21)NCc1ccccc1", "hERG current change (%, negative = inhibition) at 1uM": 14.8}, {"smiles": "Cc1cc(N=Nc2ccc3ccccc3c2)ccc1O", "hERG current change (%, negative = inhibition) at 1uM": 9.74}, {"smiles": "Cc1ccc2c(ccn3cc4c(c(=O)n(C)c(=O)n4C)c23)c1", "hERG current change (%, negative = inhibition) at 1uM": 9.48}, {"smiles": "O=C(CN1C(=O)NC2(CCCCCC2)C1=O)N1CCN(S(=O)(=O)c2ccccc2)CC1", "hERG current change (%, negative = inhibition) at 1uM": 4.28}, {"smiles": "CCn1c(O)c(N=NC(=O)CNC(=O)c2ccccc2F)c2ccccc21", "hERG current change (%, negative = inhibition) at 1uM": 13.7}]}]}
